44 sequences from the supplement of paper PMC11417369 can be followed below.

± gives the standard deviation of the averaged measurements. Some of the results follow.

This experiment deals with PfAP2-I AP2 domain 3 (GST-tagged). Nature of the experiment: gcPBM binding intensity (ln(normalized median fluorescence intensity)); higher = stronger DNA binding. Summed up: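 Binding intensity is the highest Masliner-normalised natural-log median intensity over replicate spots in either probe orientation. To obtain it, GST-tagged P. falciparum DNA-binding domains made in E. coli were incubated for 1 h on an Agilent 4 × 180k array of primer-extended double-stranded 36-bp intergenic genomic probes plus negative controls. Detection used Alexa488 anti-GST antibody with scanning at 488 nm.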
As for “ATCAAAATGTTAAAGATACACACCTAACAAACACAA [CACACA_site955]”, the “gcPBM binding intensity (ln)” value came to 7.96 ± 0.19. Regarding “GCACGCTGTATGAATGCACACATTCATAGAATTGCT [CACACA_site8852]”, the “gcPBM binding intensity (ln)” value stood at 9.22 ± 0.15. For “TTATATATATAGAAGTGTACAAAATTTCCTAGACCT [XGTACX_site3900]”, the “gcPBM binding intensity (ln)” value is 7.92 ± 0.61. As for “TATCGACATTTCATTTGTACATATATACATATATTT [XGTACX_site3346]”, the figure is 7.71 ± 0.6; as for “AAATAGTATATAATATGTACATACATAAAAATGTAT [XGTACX_site3524]”, 7.63 ± 0.54; as for “ACCTATGTATATTATACACACTCCAAACTATTATTT [CACACA_site1817]”, 8.12 ± 0.58.

Regarding “TTTTGTTTGTTCGTGACTACATTATGTTGTAAATAC [CACACA_negctrl_site604]”, the “gcPBM binding intensity (ln)” value came to 7.87 ± 0.56. Turning to “AAAGGTAAGCAGAATAGTACAGAAGAAAAAATATTT [XGTACX_site2941]”, the “gcPBM binding intensity (ln)” value turned out to be 8.09 ± 0.81. Take “TATCCTATAAATAATACATGCATATATATATATATT [TGCATGCA_site638]”: the “gcPBM binding intensity (ln)” value was 8.07 ± 0.37. With “ATCAAAAAAAAAAAATTTTTTTTTTTGTTTGTTTCC [CACACA_negctrl_site1042]” the figure was 7.34 ± 0.91; with “CAACATTTGAGACACACACACATACAAACAAACAAA [CACACA_site7538]”, 8.14 ± 0.33. As for “ATTACAAAAAAAAAAAAAAAAAAAAAAAAAAAAAAA [CACACA_negctrl_site448]”, the “gcPBM binding intensity (ln)” value stood at 8.35 ± 1.1. With “TATACATAGATATATACACACATATATTTATATACA [CACACA_site6328]” the figure was 7.54 ± 0.25; with “ATATGTATATATATTTGTACGTAAAATGAAATCTAA [XGTACX_site213]”, 8.28 ± 0.44; with “ATTTCACAGAAACACACACACAATATATTTCCTTTT [CACACA_site3904]”, 7.71 ± 0.61. Consider “GAAAAATGAAGAGAACAAAATTTTATGATATATATA [GTGCAC_negctrl_site231]”, for which the “gcPBM binding intensity (ln)” value is 8.13 ± 0.6. As for “CCTTGAACCCCACTAACACACACACCCACGCTCAGA [CACACA_site8976]”, the “gcPBM binding intensity (ln)” value was determined as 8.14 ± 0.59. Regarding “TTTCATAAATAAATATGTACATAATTAATAATAAAT [XGTACX_site5882]”, the “gcPBM binding intensity (ln)” value was 7.78 ± 0.27.

GTTATTGAAAAAATAGTGCAATATAACAAAGTAAAA: the “gcPBM binding intensity (ln)” value came out at 11.4 ± 0.52.

Take “AAATAAAACAAACACACACACACATACACAAAAAAA [CACACA_site3849]”: the “gcPBM binding intensity (ln)” value worked out at 8.06 ± 0.35. On to “GGAATGTAGGGTTTTACCAAAATAAAAATAACCATA [XGTACX_negctrl_site492]”, for which the “gcPBM binding intensity (ln)” value is 7.64 ± 0.61.

For the sequence “TATATATTTCGGTGTGCACACTTTTTATTTTTATCC [CACACA_site1726]”, the “gcPBM binding intensity (ln)” value was found to be 9.15 ± 0.67.

Regarding “TATATATATATATGTACACACATATATACCTTTCAT [CACACA_site2679]”, the “gcPBM binding intensity (ln)” value stood at 9.44 ± 0.45.

Take “TAATTTCTTATGTATTGTACAAATAATATATGATAT [XGTACX_site611]”: the “gcPBM binding intensity (ln)” value stood at 7.91 ± 0.33. As for “ATAAAATACCTATAAACACACATATAAACAGACATA [CACACA_site7213]”, the figure is 7.79 ± 0.45; as for “CTTTTATTAAAATTCACACACATAAACTTTTATAAA [CACACA_site7027]”, 7.81 ± 0.48. On to “AATATATACAATATATGTACATATATATACACATAT [XGTACX_site4190]”, for which the “gcPBM binding intensity (ln)” value was 7.88 ± 0.47. As for “CTTATATATATATCATGTACTTATGTATTTAAGAAT [XGTACX_site3307]”, the figure is 7.71 ± 0.26; as for “ACAATAAAAATTTATGCATGTGAATTGAAAAAAAAA [TGCATGCA_site1037]”, 7.94 ± 0.79; as for “ATAATATTTTCTTCTTATTGAATGCTTTAAATTTAC [CACACA_negctrl_site1273]”, 7.64 ± 0.81. As for “GGGAAATATTGAAACACACACGAACGCACGTATTTC [CACACA_site6258]”, the figure is 8.79 ± 0.69; as for “TTAAGAAGTTCTAAATGTACATACATAACCACGTTA [XGTACX_site7514]”, 7.67 ± 0.57.

Turning to “ACAAATAAGTTTTGTAGTACTGTGTATATATATATA [XGTACX_site6901]”, the “gcPBM binding intensity (ln)” value amounted to 9.23 ± 0.47. With “TTAAACCGTGGGAGCACACACACACCCCCACCCATA [CACACA_site331]”, the “gcPBM binding intensity (ln)” value stood at 8.53 ± 0.35.

Turning to “GCATAAGAAAATAATTGTACAATTTACATACATAAA [XGTACX_site8286]”, the “gcPBM binding intensity (ln)” value is 7.73 ± 0.51. With “TATATATGTATATATATAAATATATATATATATATA [TGCATGCA_negctrl_site605]” the figure was 9.4 ± 0.63; with “TAATGAAATATACAGAGTACATTCTGTATATAGGAT [XGTACX_site7691]”, 7.75 ± 0.46. With “TATAAATATATATACACACACACATTAATACATATA [CACACA_site3488]”, the “gcPBM binding intensity (ln)” value was determined as 7.9 ± 0.33. As for “ATATTAGTAACACAGACACACAAAAAAAAAAAAAAA [CACACA_site2176]”, the figure is 8.09 ± 0.69; as for “TTGTACGCAAAAAAAAAAAAAAAAAAATTAAAATTT [TGCATGCA_negctrl_site586]”, 7.77 ± 0.042. As for “TTTTTCTCTTTAAGGTGTACAATAATACAGTAACCA [XGTACX_site300]”, the figure is 8.32 ± 0.042. “TTTTTTATTATCAAAACATGCATTTTTTAAATGGAA [TGCATGCA_site557]”: the “gcPBM binding intensity (ln)” value was 7.72 ± 0.62. With “AGGAAAATACCTTAATGTACATAGAAAAGTAACATT [XGTACX_site8011]” the figure was 7.78 ± 0.52; with “CACTTAACACAAGAGTGTACACATATATATATATAT [XGTACX_site686]”, 9.61 ± 0.52.
